Where “and” joins values, the source holds several entries; their conditions need not be identical. Equal entries are not always repeated. Hit rate of the full screen: of about 420,000 compounds, about 50,000 (12%) were called active. Inconclusive means that the source gave no clear call. Such entries were picked first, then a sample of the others. The call rests on the fitted dose curve; in most records, active means well fitted inhibition curve with a large enough effect; inconclusive means small, poorly fitted or top-dose-only effect; inactive means flat fitted curve, though single readings scatter. A potency beside an inconclusive call is a rough fit, not a confirmed value.
experiment: qHTS for Inhibitors of human tyrosyl-DNA phosphodiesterase 1 (TDP1): qHTS in cells in presence of CPT; conditions: chicken DT40 Tdp1-/-;hTDP1 cells + 20 nM CPT, ATP luminescence, 48 h; activity change, negative = growth inhibition: at 46.2 µM (top of the series) unless noted; further: nearly all actives have a fitted effect of over 55% in size
Outline: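 Chicken DT40 Tdp1-/- cells stably complemented with human TDP1 were seeded at 400 cells/well in medium containing 20 nM camptothecin, exposed to pin-transferred compounds, and grown at 37 °C for at least 48 hr. Viability was read as ATP luminescence.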
On the % scale 0 is the no-effect control and ±100 the full control effect; potency means the concentration at half of the fitted maximal effect; tags describe the fitted curve by direction and shape.

Row | SMILES | Potency | activity change, negative = growth inhibition
1 | CCCCn1c(SCC(=O)N2CCc3ccccc32)nnc1-c1ccncc1 | inconclusive: 23.1 µM [inhibitor, single point] | 
2 | O=C(NC(=S)Nc1ccc(Br)cn1)c1cncc(Br)c1 | inconclusive: 29.1 µM [inhibitor, partial curve, poor fit] | 
3 | COc1ccc(C(=O)COC(=O)C(C(C)C)N2C(=O)C3C4C=CC(C4)C3C2=O)cc1 (stereo not drawn) |  | inconclusive: -36% [inhibitor]
4 | CC(C)(C)NC(=O)CN(C(=O)c1snc(C(=O)NC2CCCCC2)c1N)c1ccc(F)cc1 | inconclusive: 29.1 µM [inhibitor, single point] | 
5 | CC(=O)OC1CCC2C3CCC4=C(CC(F)C(=O)C4)C3CCC12C (stereo not drawn) | inconclusive: 29.1 µM [inhibitor, single point] | 
6 | Cc1ccc(-c2csc3ncn(-n4c(C)ccc4C)c(=O)c23)o1 | active: 23.1 µM | 
7 | c1coc(CNc2nc3sc4c(c3c3ncnn23)CCCC4)c1 | inconclusive: 25.9 µM [inhibitor, single point] | 
8 | CCN(CCNC(=O)C1CCCN(S(=O)(=O)CC)C1)c1ccccc1 (stereo not drawn) | inactive | 
9 | CC(C)(C)c1ccc(C(=O)NCC(=O)OCC(=O)Nc2nc(-c3ccc(F)cc3)cs2)cc1 |  | inconclusive: -35.7% [inhibitor]
10 | CCCN(CCC)CC(O)Cn1cc(/C=C/C(=O)c2ccc(C)cc2)c2ccccc21 (stereo not drawn) | inconclusive: 18.4 µM [inhibitor, single point] | 
11 | Cc1ccc(-n2ncc(C(=O)NC3CC3)c2C2CCN(C(=O)OC(C)(C)C)CC2)c(C)c1 | inconclusive: 29.1 µM [inhibitor, single point] | 
12 | CC(C(=O)NCc1ccc(Cl)cc1)n1ccc2cc(S(=O)(=O)N3CCCCCC3)ccc21 (stereo not drawn) | inconclusive: 18.4 µM [inhibitor, single point] | 
13 | CCCCN(C(C)=O)c1c(CC)nc2ccc(C(=O)NCc3cccs3)cn12 | inconclusive: 14.6 µM [inhibitor, partial curve, poor fit] | 
14 | Cc1cc(=O)[nH]c(SCc2ccc(Cl)cc2)n1 | inactive | 
15 | O=C(NC1CCCCC1)NC1CCN(CC(=O)N2CCOCC2)CC1 | inactive | 
16 | CCCn1nnnc1NCc1c(F)cccc1Cl | inconclusive: 20.6 µM [inhibitor, single point] | 
17 | C=CCNC(=S)N/N=C/c1ccc(-c2ccc(Cl)cc2Cl)o1 | active: 5.17 µM | 
18 | N#Cc1ccc(OCC(=O)n2cc(C(=O)c3cc(Cl)cc(Cl)c3O)cn2)cc1 | inconclusive: 16.4 µM [inhibitor, single point] | 
19 | O=C(Nc1nc(-c2cccnc2)cs1)c1ccc([N+](=O)[O-])cc1 | inconclusive: 16.4 µM [inhibitor, partial curve] | 
20 | Cc1nnsc1NC(=O)OCc1ccc(C(C)(C)C)cc1 | active: 14.6 µM | 
21 | CNC(=S)NNC(=O)c1sccc1OCc1cccc(C(F)(F)F)c1 | inconclusive: 9.2 µM [inhibitor, partial curve, poor fit] | 
22 | COc1ccc(NC(=O)CN2CCN(Cc3ccc(F)cc3)S2(=O)=O)cc1Cl | inconclusive: 25.9 µM [inhibitor, single point] | 
23 | Cc1ccccc1CC1(CO)CCCN(Cc2ccc(C#CC(C)(C)O)cc2)C1 (stereo not drawn) | inconclusive: 20.6 µM [inhibitor, single point] | 

Row | SMILES | Potency | activity change, negative = growth inhibition
24 | Oc1[nH]c2ccccc2c1N=Nc1nc(Nc2ccccc2)nc(N2CCOCC2)n1 | inactive | 
25 | COC(=O)c1cn(C(=O)c2cc(C)cc(C)c2)c2ccccc12 | inconclusive: 29.1 µM [inhibitor, single point] | 
26 | COc1ccc2nc(C)cc(SCC(=O)N/N=C/c3cccc4ccccc34)c2c1 | active: 7.08 µM | 
27 | COC(=O)c1ccc(C2/C(=C(\O)c3cccc(OC)c3)C(=O)C(=O)N2CCCN(C)C)cc1 (stereo not drawn) | inactive | 
28 | Cc1ccc(-c2csc3ncnc(SCC(=O)NCc4ccc5c(c4)OCO5)c23)cc1 | inconclusive: 29.1 µM [inhibitor, single point] | 
29 | O=C(NCc1ccccc1Cl)C1CCCN(S(=O)(=O)c2cccc3nsnc23)C1 (stereo not drawn) | inactive and inconclusive: 25.9 µM [inhibitor, single point] | 
30 | COC(=O)CCCCC1=CCC2C(=O)C=C(O)C2C1 (stereo not drawn) | inactive | 
31 | CC(=O)c1ccc(-c2ccc3c4c(ccc3c2)OC(CNC(=O)C(C)N2CCOCC2)C4)s1 (stereo not drawn) | inconclusive: 6.51 µM [inhibitor, single point] | 
32 | COc1cccc(NC(=O)CN2CCN(c3nc(-c4cccc(OC)c4)cs3)CC2)c1 | inactive | 
33 | CCn1c(CNS(=O)(=O)c2ccc(Br)cc2)nnc1SC | inactive | 
34 | Cc1nc2cc(-c3ccccc3)nn2c(C)c1CCC(=O)NCc1ccco1 | inactive | 
35 | COc1cccc(N2CCN(C(=S)Nc3ccc(F)cc3)CC2)c1 | inactive | 
36 | Cc1ccc(S(=O)(=O)N2CCCC2C(=O)OCc2nc3sc(C)c(C)c3c(=O)[nH]2)cc1 (stereo not drawn) | inactive | 
37 | Cc1cccc(NC(=S)NC(C)C(c2ccccc2)N2CCN(C)CC2)c1C (stereo not drawn) | inconclusive: 18.4 µM [inhibitor, single point] | 
38 | Cc1ccc2nc(-c3ccc(F)cc3)c(Cc3ccccc3C(F)(F)F)n2c1 | inconclusive: 29.1 µM [inhibitor, single point] | 
39 | Nc1ccn([C@@H]2O[C@H](CNC(=O)[C@@H](Cc3cn(COCc4ccccc4)cn3)NC=O)[C@@H](O)[C@H]2O)c(=O)n1 | inactive | 
40 | OC(CN1CCN(c2ccccc2)CC1)c1ccc2c(c1)CCN2 (stereo not drawn) | inactive | 
41 | CCCCCOc1ccc(C(=O)NCC2(c3ccccc3)CCOCC2)cc1 | inconclusive: 29.1 µM [inhibitor, single point] | 
42 | CN(Cc1c(C(=O)N/N=C/c2ccccc2)nnn1-c1nonc1N)C1CCCCC1 | inconclusive: 29.1 µM [inhibitor, single point] | 
43 | COc1cc(NC(=O)CCc2nnc3ccc(N4CCC5(CC4)OCCO5)nn23)cc(OC)c1 | inactive | 
44 | COc1ccc(CN(C)C[C@@H]2OCCCC[C@H](C)Oc3ccc(NC(=O)Nc4ccc(F)cc4)cc3C(=O)N([C@H](C)CO)C[C@H]2C)cc1 | inconclusive: 29.1 µM [inhibitor, single point] | 
45 | COc1ccc(CNC(=O)C2CCCN2S(=O)(=O)c2ccc(Cl)cc2)cc1 (stereo not drawn) | inconclusive: 29.1 µM [inhibitor, single point] | 
46 | CCOC(=O)C1(C)C=C(Nc2ccccc2)C(=O)N1c1ccccc1 (stereo not drawn) | inconclusive: 29.1 µM [inhibitor, single point] | 

Row | SMILES | Potency | activity change, negative = growth inhibition
47 | Cc1ccnc(NC(=O)CCC(=O)N(CC(=O)NC2CCCCC2)c2ccc3c(c2)OCO3)c1 | inactive | 
48 | CCc1ccc(OCC2c3cc(OC)c(OC)cc3CCN2C(C)=O)cc1 (stereo not drawn) | inconclusive: 29.1 µM [inhibitor, single point] | 
49 | CC(c1ccccc1)C(NC(=O)OCC1c2ccccc2-c2ccccc21)C(=O)O (stereo not drawn) |  | inconclusive: -30.3% [inhibitor]
50 | CCn1nc(C(=O)Nc2ccc(N3CCOCC3)cc2)c2ccccc2c1=O | inconclusive: 23.1 µM [inhibitor, single point] | 
51 | CCOC(=O)c1cccc(NC(=O)NCc2cccn2Cc2ccccc2)c1 | inconclusive: 25.9 µM [inhibitor, single point] | 
52 | CCOc1cc(CNC(CC)CO)ccc1OCC(=O)Nc1cccc(C(F)(F)F)c1 (stereo not drawn) | inconclusive: 29.1 µM [inhibitor, single point] | 
53 | COCC(=O)N(C)[C@H]1C[C@H]2c3cc(Oc4ccccc4C)ccc3CCN2C(=O)[C@H]1[C@H](C)O | inconclusive: 14.6 µM [inhibitor, single point] | 
54 | CC(=O)c1ccc(NC(=O)Nc2ccc(NS(=O)(=O)c3ccc(C)cc3)cc2)cc1 | inconclusive: 29.1 µM [inhibitor, single point] | 
55 | Cc1ccccc1NS(=O)(=O)c1ccc2[nH]cc(C(=O)N(C)Cc3ccco3)c(=O)c2c1 | inactive | 
56 | CC(C)(C)c1nnc(N/N=C/c2cc(Br)ccc2O)n(N)c1=O | active: 2.59 µM | 
57 | C[C@H](N)C(=O)N[C@@H](C)P(=O)(O)O | inactive | 
58 | Cc1ccc2occ(CC(=O)N(Cc3ccccc3Cl)C3CCS(=O)(=O)C3)c2c1 (stereo not drawn) | inconclusive: 29.1 µM [inhibitor, single point] | 
59 | Cc1c(-n2c(=S)[nH]c3ccccc3c2=O)c(=O)n(-c2ccccc2)n1C | inconclusive: 6.51 µM [inhibitor, partial curve] | 
60 | Cc1c(Cl)cccc1NC(=S)NC1CC1 | inactive | 
61 | Cc1ccc(Cn2cc(CCC(=O)NC3CCC(C)CC3)c3ccccc32)cc1 (stereo not drawn) | inconclusive: 29.1 µM [inhibitor, single point] | 
62 | CC(=O)Nc1ccc(S(=O)(=O)N(C)CC(=O)Nc2ccccc2N2CCCC2)cc1 | inconclusive: 18.4 µM [inhibitor, single point] | 
63 | CC(=O)Nc1cccc(-c2cc(NC(C)=O)c3ncc(-c4cccc(C(F)(F)F)c4)n3c2)c1 | active: 25.9 µM | 
64 | O=C(Nc1nnc(-c2ccccc2)o1)c1cccc(S(=O)(=O)N2CCOCC2)c1 | active: 13 µM | 
65 | CSc1ccc(C(=O)C2CCCN(C(=O)CCc3cnn(C)c3)C2)cc1 (stereo not drawn) | inconclusive: 20.6 µM [inhibitor, single point] | 
66 | CN1C/C(=C/c2ccncc2)C(=O)/C(=C/c2ccncc2)C1 | inconclusive: 29.1 µM [inhibitor, single point] | 
67 | COc1ccc(NS(=O)(=O)c2ccc(C)c(C(=O)NCc3ccccc3CN3CCCC3)c2)cc1 | inconclusive: 23.1 µM [inhibitor, single point] | 
68 | COc1ccc(Oc2nc(C)cc(C)c2C#N)cc1 | inactive | 

From PubChem BioAssay AID686979 (National Center for Advancing Translational Sciences (NCATS), 2013)
